About 11,000 (3.1%) of roughly 360,000 compounds were called active. The inconclusive results got no clear call from the source; some entries with a clear call stand among them for comparison. The call rests on the fitted dose curve; in most records, active means well fitted inhibition curve with a large enough effect; inconclusive means small, poorly fitted or top-dose-only effect; inactive means no such curve, though single readings can be large or run the other way. No potency is given beside an inconclusive call; the fits are too rough.
target: Schistosoma mansoni thioredoxin glutathione reductase (TGR) (UniProt Q962Y6); assay: qHTS Assay for the Inhibitors of Schistosoma Mansoni Peroxiredoxins; conditions: purified TGR, DTNB reduction, TNB absorbance 405 nm; series mostly up to 114 µM; further: nearly all actives have a fitted effect of over 60% in size
Method in brief: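 First, TGR (20 nM dispensed) and NADPH were mixed with compound. Second, a 15 min room-temperature incubation followed. Third, further NADPH and then DTNB were added to start the reaction. Finally, TNB absorbance was monitored kinetically.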
Potency means the concentration at half of the fitted maximal effect; tags describe the fitted curve by direction and shape.

Compound | Potency
Cc1ccccc1NC(=S)NC(=O)CCc1ccccc1 | inconclusive [inhibitor, partial curve]
COCCNC(=O)CSc1nc(-c2ccc(C)cc2)[nH]c1-c1ccc(OC)cc1 | inactive
Cn1c(N/N=C/c2cccs2)cc(=O)n(C)c1=O | inactive
Cc1ccc(C(=O)NC(=S)Nc2c(C)ccc3nsnc23)cc1 | inconclusive [inhibitor, full curve, poor fit]
Cc1ccc(CS(=O)(=O)Cc2ccc(C(=O)NC3CCCCCC3)o2)cc1 | inconclusive [inhibitor, partial curve, poor fit]
Cc1ccc(-c2c(C)n([O-])c3c([n+]2=O)CCCC3)o1 | inconclusive [inhibitor, single point]
N#Cc1c(Cl)c(Cl)c2nnc(-c3ccc(Br)cc3)n2c1Cl | inconclusive [inhibitor, full curve]
CC1CCN(S(=O)(=O)c2ccc3c(c2)N(CC(=O)NCCN(C)C)C(=O)CS3)CC1 | inactive
Cc1ccc(SC(CC(=O)c2ccc(F)cc2)C(=O)O)cc1 (centres undefined) | active: 0.501 µM
O=C(NCC1CCCCN1)c1cc(OCC(F)(F)F)ccc1OCC(F)(F)F (centres undefined) | inconclusive [inhibitor, partial curve]
Cc1ccc(S(=O)(=O)N/N=C\c2ccc(Cl)c([N+](=O)[O-])c2)cc1 | inconclusive [inhibitor, partial curve]
Cc1ccc(S(=O)(=O)Nc2cc(C(=O)N3CCC4(CC3)OCCO4)ccc2N2CCCCC2)cc1 | inconclusive [inhibitor, partial curve]
CCOc1ccc(NC(=O)c2c(NCc3cccs3)sc3c2CCCCC3)cc1 | active: 7.94 µM
COC(=O)C1=C(c2ccc(OC)c(OC)c2)C[C@@H]2CC[C@H]1N2C(=O)NCCc1ccccc1 | inactive
CC(C)(C)C1C/C(=C/c2ccco2)C(=O)/C(=C/c2ccco2)C1 (centres undefined) | active: 39.8 µM
COCCNC(=O)NC(=O)CSc1nc(C)c(C)c(C)n1 | inconclusive [inhibitor, single point]
COC(=O)CN1C(=O)[C@H]2[C@@H](c3ccc(C)o3)N3C(=O)CN(Cc4ccccn4)C(=O)[C@@]3(C)[C@H]2C1=O | active: 25.1 µM
Cc1onc(-c2c(F)cccc2Cl)c1C(=O)O/N=C(\N)c1ccc([N+](=O)[O-])o1 | inconclusive [inhibitor, partial curve]
O=C1NC(=S)N(Cc2ccco2)C(=O)/C1=C\c1cccs1 | active: 3.55 µM
Cc1ccc(C(=O)/C=C/Nc2cccc(O)c2)cc1 | inactive
Cc1c(NC(=O)C(C)OC(=O)/C=C/c2ccco2)c(=O)n(-c2ccccc2)n1C (centres undefined) | active: 44.7 µM
COC(=O)CNC(=O)CCC(=O)N1CCN(C(c2ccccc2)c2ccccc2)CC1 | inconclusive [inhibitor, full curve]

Compound | Potency
Cc1[nH]c2ccccc2c1C(c1ccncc1)N1CCN(c2ccccc2F)CC1 (centres undefined) | active: 3.55 µM
CCN1/C(=N\N)c2cccc3cccc1c23 | active: 22.4 µM
Cc1cc(-c2ccco2)n(CC(=O)NCc2ccccc2)n1 | inconclusive [inhibitor, partial curve]
O=C(Nc1nc(-c2ccco2)c(-c2ccco2)s1)C1CC(=O)N(c2ccc3c(c2)OCCO3)C1 (centres undefined) | active: 11.2 µM
Cc1cc(C)cc(NC(=O)N2CCC(N3CCN(Cc4ccccc4)C(=O)C3=O)CC2)c1 | inconclusive [inhibitor, single point]
OCC[N+]12CCC(CC1)C(C(O)(c1ccccc1)c1ccccc1)C2 (centres undefined) | inactive
CN(C)c1ccc(NC(=O)Nc2ccc3snnc3c2)cc1 | inactive
O=C1CCN(N=Nc2cccc(Cl)c2)N1 | inconclusive [inhibitor, full curve]
Fc1ccccc1C1CC(c2ccco2)=Nc2ccccc2S1 (centres undefined) | active: 8.91 µM
COc1ccccc1/C=C/CN1CCN(Cc2ccc(C)o2)C(CCO)C1 (centres undefined) | active: 44.7 µM
COc1ccc(C2C(C(=O)c3cc4cccc(OC)c4o3)=C(O)C(=O)N2CCCN(C)C)cc1OC (centres undefined) | inconclusive [inhibitor, single point]
C#CCOCCOCCOCCNc1nc(N2CCN(C(=O)[C@H](CCCCN)n3cc([C@@H](N)CO)nn3)CC2)nc(N2CCN(C(=O)[C@H](Cc3cc4ccccc4[nH]3)n3cc([C@@H](N)CC(C)C)nn3)CC2)n1 | inconclusive [inhibitor, partial curve]
CN1/C(=C\C(=O)CN2C(=O)NC3(CCCCCC3)C2=O)C(C)(C)c2ccccc21 | inconclusive [inhibitor, full curve]
COc1ccc(OC)c(CCNC(=O)c2nn(C)c3c2CSc2ccccc2-3)c1 | inconclusive [inhibitor, single point]
COc1cc(C2C(C(=O)c3ccco3)=C(O)C(=O)N2c2cc(C)on2)cc(Br)c1O (centres undefined) | inconclusive [inhibitor, single point]
COC/C=C/C1=CC2=CC(=O)C(C)(OC(=O)C3CCCC3)C(=O)C2=CO1 (centres undefined) | active: 3.55 µM
Cc1c(C(=O)Nc2cccc(C#N)c2)sc2nc3n(c(=O)c12)CCCCC3 | active: 5.62 µM
Cc1cc2cc(CNC(=O)NC3CCCCC3)ccc2[nH]1 | inconclusive [inhibitor, partial curve]
O=C(CN1CC[C@@]2(O)CCCC[C@H]2[C@@H]1c1ccc(F)cc1)NCc1ccco1 | active: 39.8 µM
COc1nccnc1NS(=O)(=O)c1ccc(NC(=S)NC(=O)c2ccc(F)c(F)c2)cc1 | inconclusive [inhibitor, partial curve]
CC(NC(=O)c1ccco1)C(=O)OCC(=O)c1ccc(Cl)s1 (centres undefined) | inconclusive [inhibitor, full curve]
CCOC(=O)c1c(NC(=O)COc2cccc3c2CCN(C)C3=O)sc2c1CCC2 | inconclusive [inhibitor, partial curve]

Reference: PubChem BioAssay AID485364 (National Center for Advancing Translational Sciences (NCATS), 2010)
